Measured values as given in PubChem BioAssay AID485294 (National Center for Advancing Translational Sciences (NCATS), 2010).
In all, about 370,000 compounds went through this assay and about 150 (0.041%) were called active. The inconclusive results got no clear call from the source; some entries with a clear call stand among them for comparison. Calls come from the whole dose curve; as a rule, active = well fitted inhibition curve with a large enough effect; inconclusive = small, poorly fitted or top-dose-only effect; inactive = flat fitted curve, though single readings scatter. Potencies of inconclusive entries are left out as doubtful fits.

Target: Beta-lactamase (Escherichia coli (strain K12)) (UniProt P00811)
Experiment: qHTS Inhibitors of AmpC Beta-Lactamase (assay with detergent); note: nearly all actives have a fitted effect of over 25% in size;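 for activity change, negative = inhibition: 0% = no-compound wells and -100% = no-enzyme wells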
Conditions: AmpC hydrolysis of nitrocefin, absorbance 480 nm, 0.01% Triton; activity change, negative = inhibition: at 114 µM (top of the series)
How it was run: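 AmpC (5.3 nM in the dispensed reagent) in 20 mM phosphate pH 7.0 with 0.01% (detergent screen) or 0.0001% Triton X-100 was preincubated with compounds for 15 min at room temperature. Nitrocefin was then added from an 800 uM solution, and hydrolysis was followed at 480 nm.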
Potency is the fitted concentration of half-maximal effect; tags give direction and shape of the fitted curve.

Sequence of UniProt P00811 (P00811 whole entry, looked up): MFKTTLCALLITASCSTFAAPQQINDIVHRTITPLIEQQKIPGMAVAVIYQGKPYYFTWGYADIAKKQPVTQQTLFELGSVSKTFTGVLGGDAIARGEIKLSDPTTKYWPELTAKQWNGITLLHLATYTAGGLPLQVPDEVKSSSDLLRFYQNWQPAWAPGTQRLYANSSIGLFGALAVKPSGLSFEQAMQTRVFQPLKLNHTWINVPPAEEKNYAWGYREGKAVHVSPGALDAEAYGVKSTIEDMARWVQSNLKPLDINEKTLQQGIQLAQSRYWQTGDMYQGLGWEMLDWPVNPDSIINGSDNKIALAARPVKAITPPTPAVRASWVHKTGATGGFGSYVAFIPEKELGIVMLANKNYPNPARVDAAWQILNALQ

Compound	Potency	activity change, negative = inhibition
CC(C(=O)Nc1cccc(S(=O)(=O)N2CCOCC2)c1)N1CCN(C/C=C/c2ccccc2)CC1 (configuration not stated)	inconclusive [inhibitor, single point]	–
COc1ccc2[nH]c(O)c(N=O)c2c1	inconclusive [inhibitor, full curve]	–
COc1ccc(-c2cc(C(=O)N3CCOCC3)no2)cc1OC	–	inactive: -6.72%
CC1=C(C(=O)OCCc2ccccc2)C(c2ccsc2)NC(=O)N1C (configuration not stated)	–	inactive: -0.762%
CCOc1ccc(CCNC(=O)C2CCN(Cc3nc(-c4ccc(OC)c(OC)c4)oc3C)CC2)cc1OCC	–	inactive: 1.54%
CCC(Sc1nncn1C)C(=O)Nc1nnc(-c2ccccc2Cl)s1 (configuration not stated)	inconclusive [inhibitor, full curve, poor fit]	–
COc1ccc(-c2ccc(SCC(=O)Nc3cc(C)on3)nn2)cc1OC	inconclusive [inhibitor, full curve]	–
Cc1ccccc1Cn1cc(S(=O)(=O)CC(=O)N2CCCCC2)c2ccccc21	–	inactive: -1.03%
Cc1cccc(C(=O)Nc2nc3nc(-c4ccccc4)cc(=O)n3[nH]2)c1	–	inactive: 14.2%
N#Cc1c(Oc2ccc3ccccc3c2)sc(C(=O)c2ccccc2)c1N	inconclusive [inhibitor, single point]	–
Cc1ccc(-n2nc3c(c2NC(=O)c2cccs2)CS(=O)(=O)C3)c(C)c1	–	inactive: -6.98%
COc1cc(CN2CCN(c3ncccn3)CC2)cc(OC)c1	inconclusive [inhibitor, full curve, poor fit]	–
CCOC(=O)C(CN1CCCC1)c1ccccc1 (configuration not stated)	inconclusive [inhibitor, partial curve, poor fit]	–
O=C(CN1CCOCC1)Nc1ccc2c(c1)OC(F)(F)O2	inconclusive [inhibitor, full curve]	–
CCOC(=O)c1sc(NC(=O)CSc2nnnn2-c2ccc(C)cc2C)nc1C	inconclusive [inhibitor, single point]	–
Cc1nnc(NC(=O)c2cc(-c3ccco3)nc3ccccc23)s1	–	inactive: 2.92%
CCOC(=O)C1CCCN(C(=O)CN2C(=O)NC(C)(c3ccc4ccccc4c3)C2=O)C1 (configuration not stated)	inconclusive [inhibitor, partial curve, poor fit]	–
COc1ccc(C(=O)N/C(=C\c2cccc3ccccc23)C(=O)NCCc2c[nH]c3ccccc23)cc1OC	inconclusive [inhibitor, partial curve]	–
CC12CC3CC(C)(C1)CC(CN1CCOCC1)(C3)C2	inconclusive [inhibitor, single point]	–
Cc1nc2nc(-c3cccnc3)[nH]n2c(=O)c1C	inconclusive [inhibitor, partial curve, poor fit]	–
CC(C)c1ccc(CNc2nnnn2C)cc1	–	inactive: 3.22%
COC(=O)C1CN(C(=O)COc2ccccc2)c2ccccc2O1 (configuration not stated)	–	inactive: 1.58%
Cc1nn(C(C)C(=O)N2CCc3ccccc32)c(C)c1[N+](=O)[O-] (configuration not stated)	inconclusive [inhibitor, full curve, poor fit]	–
CN(Cc1ccccc1)c1nc(N)c([N+](=O)[O-])c(NCc2ccccc2)n1	inconclusive [inhibitor, partial curve]	–

Compound	Potency	activity change, negative = inhibition
COc1ccc(CNC(=O)COc2cc3c(c4oc(=O)cc(C)c24)CCC(C)(C)O3)cc1OC	–	inactive: -11.9%
CCNS(=O)(=O)c1ccc2nc(NC(=O)/C=C/c3cc(OC)c(OC)c(OC)c3)sc2c1	inconclusive [inhibitor, full curve, poor fit]	–
Cn1c2ccccc2c2c(C(=O)N3CCN(c4cccc(Cl)c4)CC3)cn(C3CCCCC3)c(=O)c21	–	inactive: 13.1%
COc1ccc(OC)c(CCNC(=O)c2cc3cccc4c3n2CC(C)S4)c1 (configuration not stated)	–	inactive: 2.08%
O=C(NCc1ccc2c(c1)CCN2C(=O)c1ccncc1)c1ccccc1Cl	–	inactive: 10.7%
Cc1ccc(S(=O)(=O)c2nc(Cc3ccccc3)oc2N2CCOCC2)cc1	inconclusive [inhibitor, partial curve]	–
COc1ccc(S(=O)(=O)Nc2ccccc2C(=O)NCc2cccnc2)cc1	–	inactive: -4.01%
Cc1c(CN2CCN(CC(C)C)C(CCO)C2)[nH]c2ccc(Cl)cc12 (configuration not stated)	–	inactive: 3.3%
O=C(CCCSc1ccccc1)Nc1ccc(Cl)c(S(=O)(=O)N2CCOCC2)c1	inconclusive [inhibitor, partial curve, poor fit]	–
O=C(/C=C/c1ccc(Cl)cc1Cl)NC(=S)Nc1ccccn1	inconclusive [inhibitor, single point]	–
O=C1NC(=O)C(CC(=O)N(Cc2cccs2)C2(C(=O)NC3CCCC3)CCCCC2)N1 (configuration not stated)	inconclusive [inhibitor, full curve]	–
CN(C)c1ccc(C(=O)C(O)c2ccccc2)cc1 (configuration not stated)	inconclusive [inhibitor, single point]	–
O=C(Nc1cc(C(F)(F)F)ccc1N1CCOCC1)c1cccnc1Cl	inconclusive [inhibitor, full curve]	–
COc1ccc(CNC(=O)Nc2cccc(C(F)(F)F)c2)cc1OC	inconclusive [inhibitor, full curve, poor fit]	–
CCN(CC)c1cc(C)c2cc(NC(=O)c3ccccc3Cl)ccc2n1	inconclusive [inhibitor, full curve, poor fit]	–
CCOC(=O)c1ccccc1NC(=O)c1ccccc1NS(C)(=O)=O	inconclusive [inhibitor, full curve, poor fit]	–
CCOC(=O)CC(NC(=O)c1cc2cc(Br)cc(OC)c2oc1=O)c1ccc(OC)cc1 (configuration not stated)	–	inactive: -2.31%
NS(=O)(=O)c1ccc(O)c(NC(=O)c2ccc([N+](=O)[O-])cc2)c1	–	inactive: 3.53%
CCN1CCc2nc3ccccc3c(C(=O)Nc3ccc(C#N)cc3)c2C1	–	inactive: 0.0157%
Cc1ccc(C(=O)NC2CCN(CC(=O)Nc3c(C)cc(C)cc3C)CC2)cc1	inconclusive [inhibitor, partial curve, poor fit]	–
CC(C)Cc1nc2oc3c(NCC4CCCO4)ncnc3c2c2c1CCC2 (configuration not stated)	inconclusive [inhibitor, full curve, poor fit]	–
Cc1ccccc1-n1c(-c2csc(C)c2C)n[nH]c1=S	inconclusive [inhibitor, full curve, poor fit]	–
Cc1ccc(-c2nn(C)c(=O)c3ccccc23)cc1S(=O)(=O)NCCN1CCOCC1	inconclusive [inhibitor, partial curve, poor fit]	–
Cc1nc2ccccc2c(N)c1C(=O)/C=C/c1ccccc1	–	inactive: -10.8%

Compound	Potency	activity change, negative = inhibition
C=CCn1c(CNC(=O)c2ccco2)nnc1SCC(=O)c1ccc(F)cc1	–	inactive: -7.82%
O=C(CCCSc1nc2ccccc2[nH]1)N1CCN(c2ccccc2)CC1	–	inactive: -1.67%
Cc1cc(=O)[nH]c2ccc(S(=O)(=O)N3CCOCC3)cc12	inconclusive [inhibitor, full curve, poor fit]	–
COc1ccc(C2=NS(=O)(=O)N(C)C(C(=O)N3CCC(C)CC3)=C2)cc1	inconclusive [inhibitor, full curve, poor fit]	–
O=C(NCc1ccccn1)[C@@H]1C[C@H]1[C@@H](NP(=O)(c1ccccc1)c1ccccc1)c1ccccc1	inconclusive [inhibitor, partial curve, poor fit]	–
COc1ccc(C2CC(=O)N3CN(c4ccc(C)c(Cl)c4)CSC3=C2C#N)cc1 (configuration not stated)	inconclusive [inhibitor, full curve, poor fit]	–
CCOC(CNC(=O)CCc1c(C)nc2nc(C)nn2c1C)OCC	inconclusive [inhibitor, single point]	–
Cc1nc2sc(C(=O)O)c(N)c2c2c1COC(C)(C)C2	inconclusive [inhibitor, full curve]	–
COc1ccc(OC)c(CNC(=O)Cn2ncc3c([nH]c4ccc(C)cc43)c2=O)c1	–	inactive: 4.86%
c1ccc2c(NC3=NCCS3)cccc2c1	inconclusive [inhibitor, full curve]	–
O=C(CNC(=O)c1ccc(Cl)cc1Cl)OCC(=O)c1ccc2c(c1)OCCO2	inconclusive [inhibitor, single point]	–
CCOc1ccc2nc(-c3cc(NC(C)=O)ccc3O)sc2c1	–	inactive: 0.172%
Cc1cc(C)n(-c2nc3nonc3nc2Nc2cccc(C)c2C)n1	inconclusive [inhibitor, single point]	–
Cc1ccc(C(=O)CCS(=O)(=O)c2ccc(Br)cc2)cc1	–	inactive: 4.17%
Cc1nc(-c2ccccc2)sc1-c1ccn[nH]1	–	inactive: -13.4%
CCc1c(C)nc2nncn2c1Nc1ccc(Cl)cc1	–	inactive: 15.9%
CCCN(CCC)CCCNC(=O)CCNS(=O)(=O)c1ccc(Br)cc1	inconclusive [inhibitor, full curve, poor fit]	–
CCCCCNc1nc(NCCCO)c(C#N)c2c1CN(C)CC2	inconclusive [inhibitor, full curve, poor fit]	–
Cn1c(=O)c2c(nc(Oc3cccc(O)c3)n2C)n(C)c1=O	inconclusive [inhibitor, full curve, poor fit]	–
CC(C)c1cc(C(F)(F)F)n2nc(C(=O)Nc3ccc4c(c3)OCO4)cc2n1	–	inactive: -18.2%
COCCNC(=S)N(CCc1c(C)[nH]c2ccc(OC)cc12)Cc1cccnc1	–	inactive: -4.78%
Cc1ccc(/C=N/n2c(C3CCCCC3)n[nH]c2=S)s1	–	inactive: -4.63%
Cc1ccc(OCCn2ccnc2)c(C)c1	–	inactive: 2.52%
O=C(N/N=C/c1ccc(OC(=O)c2cccs2)cc1)c1ccccn1	inconclusive [inhibitor, partial curve, poor fit]	–
